# Data from PubChem BioAssay AID1345083 (National Center for Advancing Translational Sciences (NCATS), 2018).
# Among all 94,000 compounds or so, about 6,200 (6.6%) were called active. Inconclusive means that the source gave no clear call. Such entries were picked first, then a sample of the others. Calls follow the shape of the dose curve; as a rule, active = well fitted inhibition curve with a large enough effect; inconclusive = small, poorly fitted or top-dose-only effect; inactive = flat fitted curve, though single readings scatter. Where the call is inconclusive, the potency comes from a doubtful curve fit.
# Assay: Cytotoxic Profiling in HEK 293 Cell Line of Diverse Libraries Using Quantitative High-Throughput Screening; also: nearly all actives have a fitted effect of over 60% in size
# Conditions: HEK 293 viability, ATP luminescence (CellTiter-Glo), 48-72 h; activity change, negative = cytotoxicity: at 115 µM (top of the series) unless noted; series mostly up to 115 µM
# Method in brief: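 HEK 293 cells seeded at 250 cells/well were exposed to compound for 48 or 72 hr at 37 degree Celsius. Viability taken as ATP content by CellTiter-Glo luminescence.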
# % is scaled to controls: 0 for no effect and ±100 for the full control effect; potency is read from the fitted curve at half-maximal effect; tags tell the direction and shape of the fitted curve.
SMILES,"activity change, negative = cytotoxicity",outcome,Potency
CCN1C(=O)CCC2(C(=O)NCc3cccc(C(F)(F)F)c3)CCCC=C12 (stereo not drawn),inactive: -1.21%,,
O=C(Cn1cccc1-c1nc(-c2ccc3c(c2)OCO3)no1)Nc1ccc(Cl)cc1,inactive: 6.06%,,
Cc1cc(C)cc(N2CCC(N3CCC(CCC(=O)NC4CC4)CC3)CC2)c1,,inactive,
Cc1ccccc1-c1cn[nH]c1C1CCN(C(=O)c2cnn3ccccc23)CC1,,,"inconclusive: 44.7 µM [inhibitor, partial curve, poor fit]"
Cc1ccccc1NC1CCn2c(nc(C)c2C(=O)Nc2ccc(F)cc2)C1 (stereo not drawn),,,"inconclusive: 17.8 µM [inhibitor, partial curve, poor fit]"
COc1cccc(CNC(=O)[C@@H]2C[C@@H](O)CN2C2CCN(C(=O)c3ccc4c(c3)OCO4)CC2)c1,,,"inconclusive: 89.1 µM [inhibitor, single point]"
COc1ccc(CN2CCCC(CNC(=O)NC(C)C)C2)cc1O (stereo not drawn),inactive: 3.23%,,
COc1ccccc1C(=O)N1CC(CN2C(=O)c3c(c(C)nn3-c3ccccc3)C2C2CC2)C1 (stereo not drawn),,,"inconclusive: 50.1 µM [inhibitor, partial curve, poor fit]"
COc1ccc(Cl)cc1NC(=O)Cn1c(N2CCC(C)CC2)nc(C)cc1=O,,,active: 44.7 µM
O=C(NC(C(=O)NCc1ccccc1)C1CCN(C(=O)c2ccc(F)cc2)CC1)c1ccccc1 (stereo not drawn),,inactive,
O=C(c1ccccc1F)N1CCN(c2ccc3nnc(C4CC4)n3n2)CC1,,,"inconclusive: 56.2 µM [inhibitor, partial curve, poor fit]"
COc1ccc(C(=O)Nc2ccc3c(c2)CN(Cc2ccc(F)cc2)C(=O)C(C)O3)c(OC)c1 (stereo not drawn),,,active: 31.6 µM
CCc1ccc(NC(=O)N2CCc3[nH]c4ccc(F)cc4c3C2)cc1,,,"inconclusive: 89.1 µM [inhibitor, single point]"
O=C(Nc1cccnc1)c1ccc2c(c1)OCCN(c1ccccc1)C2,,,"inconclusive: 31.6 µM [inhibitor, partial curve, poor fit]"
COCCN1C(=O)[C@@H]2C[C@@H](CN2Cc2cccc(OC)c2)Oc2ccccc21,,,"inconclusive: 100 µM [inhibitor, partial curve, poor fit]"
CN1CCCn2nc(C(=O)NC34CC5CC(CC(C5)C3)C4)cc2C1,,,"inconclusive: 7.08 µM [inhibitor, full curve, poor fit]"
COc1ccc(-c2nnc3ccc(N4CCCC4)nn23)nc1,inactive: -17.5% [at 172 µM],,
COc1cccc(CCNC(=O)c2cc(-c3ccccc3C(F)(F)F)nc3c2cnn3C)c1,,,"inconclusive: 50.1 µM [inhibitor, partial curve, poor fit]"
O=C(NCc1ccccc1)c1nc2c(o1)CCN(Cc1c(F)cccc1F)CC2,inactive: -27.7% [at 172 µM],,
COc1ccc(OC2CN(C(=O)c3ccccc3OC)C2)cc1,,,"inconclusive: 79.4 µM [inhibitor, partial curve, poor fit]"
CC(C)c1noc(-c2cn(C3CCN(C(=O)c4ccccc4Cl)CC3)nn2)n1,,,"inconclusive: 39.8 µM [inhibitor, full curve, poor fit]"
Cc1nn(C)c(C)c1CN(Cc1ccnc2ccccc12)C1CC1,,,"inconclusive: 39.8 µM [inhibitor, partial curve]"
CS(=O)(=O)c1ccc(CN2CCCC(c3ccccc3)C2)cc1 (stereo not drawn),,,"inconclusive: 79.4 µM [inhibitor, single point]"

SMILES,"activity change, negative = cytotoxicity",outcome,Potency
O=C(Cn1ccn2nc(-c3ccc(F)cc3)c(CO)c2c1=O)N1CCN(c2ccccc2)CC1,inactive: -8.75%,,
Cn1cc(CN2CCN(C(c3ccccc3)c3ccccc3)CC2)cc1C#N,,,"inconclusive: 56.2 µM [inhibitor, partial curve, poor fit]"
O=C(c1cncc(F)c1)N1CCOCC2(CN(Cc3cc(F)cc(F)c3)C2)C1,,,"inconclusive: 112 µM [inhibitor, single point]"
COc1cccc(CNC(=O)[C@@H]2C[C@@H](O)CN2C2CCN(C(=O)CCCc3ccccc3)CC2)c1,,,"inconclusive: 89.1 µM [inhibitor, single point]"
C=CCN1CCC2(CCC1=O)CN(Cc1ncc[nH]1)CCN2C (stereo not drawn),,inactive,
Cc1nc(-c2ccc(OC3CCN(C(=O)NCC(C)C)C3)cc2)no1 (stereo not drawn),,,"inconclusive: 22.4 µM [inhibitor, full curve]"
O=C(NC1CC1)c1cn2cc(-c3ccccc3)sc2n1,,,"inconclusive: 70.8 µM [inhibitor, partial curve, poor fit]"
CC(=O)Nc1ccc(C(=O)N2CCC3(CC2)N=C(c2ccc(Br)cc2)NO3)cc1,,,"inconclusive: 10 µM [inhibitor, full curve, poor fit]"
O=C(c1ccoc1)N1CCCC(CN2CCCC2)CC1 (stereo not drawn),inactive: -8.65%,,
Cc1nc2c(c(-c3ccc(Cl)cc3)n1)CCN(C(=O)N(C)C)CC2,inactive: -16.1%,,
COc1ccc(-c2cn3c(n2)CO[C@@H](CNCc2ccc(OC(F)(F)F)cc2)C3)cc1,,,active: 44.7 µM
CN1CCCC2(Cc3ccccc3CN(C(=O)c3ccccc3)C2)C1 (stereo not drawn),inactive: -13.3%,,
COc1ccc(OC)c(CNC(=O)C2(C)CCCCC(=O)N2)c1 (stereo not drawn),inactive: 9.11%,,
O=C(c1cc(-c2ccncc2)n[nH]1)N1CCC2(CC1)Nc1ccccc1NC2=O,inactive: -23.6%,,
Cc1ccc(NC(=O)N2C[C@@H](F)C[C@H]2C(=O)N2CCc3ccccc3C2)c(Cl)c1,inactive: -11.1%,,
COc1cccc(CNC(=O)c2ccc3nnc(-c4cccc(C(F)(F)F)c4)n3c2)c1,,,active: 44.7 µM
COc1cccc(-c2cccc(C(=O)N3CCN(C(=O)C4CCCC4)CC3)c2)c1,,,"inconclusive: 15.8 µM [inhibitor, full curve, poor fit]"
CC1=C[C@@H](CNC(=O)COCC(=O)O)[C@H](C(C)C)C[C@H]1Cc1nc2ccccc2n1C,inactive: -5.63% [at 172 µM],,
Cc1cccc(-c2noc([C@@H]3C[C@@H](O)CN3Cc3ccc(Cl)cc3)n2)c1,,,active: 100 µM
O=C(NC1CCCc2c1[nH]c1ccccc21)c1n[nH]c2c1CCC2 (stereo not drawn),,,"inconclusive: 10 µM [inhibitor, full curve, poor fit]"
O=C(c1ccsc1)N1CCC(O)(c2ccccc2)[C@H](N2CCCC2)C1 (stereo partly drawn),,,"inconclusive: 79.4 µM [inhibitor, single point]"
CS(=O)(=O)c1ccc(O[C@H]2COCCN(Cc3ccc(-c4ccccc4)cc3)C2)cc1,,,active: 25.1 µM
CCCOc1ccc(CN2CCC(C)(c3noc(C4CCOCC4)n3)CC2)cc1,,,"inconclusive: 50.1 µM [inhibitor, partial curve, poor fit]"

SMILES,"activity change, negative = cytotoxicity",outcome,Potency
O=C(C[C@@H]1CCNC[C@@H]1Cc1cc(CN2CCCCC2)on1)N1CCN(c2ccccc2)CC1,,,"inconclusive: 79.4 µM [inhibitor, partial curve, poor fit]"
COc1ccc(-c2c(C(=O)NCc3cccc(OC)c3)nc3sccn23)cc1,,,"inconclusive: 126 µM [inhibitor, single point]"
COc1ccc(-c2noc(N3CCc4ccccc43)n2)cc1,inactive: 0.269%,,
COc1ccc(-n2nnnc2N2CCN(C(=O)Nc3ccc(C)c(F)c3)CC2)cc1C,,,"inconclusive: 56.2 µM [inhibitor, partial curve, poor fit]"
COCCOC1CCOC2(CCN(C(=O)NCCc3ccccc3)CC2)C1 (stereo not drawn),,,"inconclusive: 89.1 µM [inhibitor, single point]"
Cc1nnc(-c2cc(-c3ccc([S+](C)(=O)[O-])cc3)ccn2)n1Cc1cccnc1,,,"inconclusive: 79.4 µM [inhibitor, partial curve, poor fit]"
COc1nccc(N2CCC(CC(=O)N(C)CCCc3c(C)nn(C)c3C)CC2)n1,,,"inconclusive: 22.4 µM [inhibitor, partial curve, poor fit]"
c1cc(-c2cc(-c3ccncc3)c3cncn3c2)c2[nH]ccc2c1,,,active: 100 µM
Cc1cc(C)c(CNC(=O)c2nc(-c3cccc(CO)c3)cc3c2ccn3C)c(=O)[nH]1,,,"inconclusive: 112 µM [inhibitor, partial curve, poor fit]"
COc1ccc(-c2noc(CN3CCN(c4ccccc4)CC3C)n2)c(OC)c1OC (stereo not drawn),,,"inconclusive: 35.5 µM [inhibitor, full curve]"
Cc1ccc([S+](=O)([O-])N2CC(N3C(=O)c4c(c(C)nn4-c4ccccc4)C3C3CC3)C2)cc1 (stereo not drawn),inactive: -12.8%,,
F[C@@H]1CN(C2CCC2)C[C@@H]1OCc1nc2ncccc2[nH]1,inactive: -5.83% [at 230 µM],,
CN(C)C(=O)N1CCC2(CC1)CN(Cc1ccncc1)Cc1ccccc1O2,inactive: -0.0821%,,
CC1=C[C@@H](CNc2ccccn2)[C@H](C(C)C)C[C@H]1Cc1nnc(-c2cncn2C)o1,,,active: 63.1 µM
COc1ccc(CC(=O)N2CCN(C(=O)c3cccc(-c4ccc(OC)nn4)c3)CC2)cc1,inactive: 0.0263%,,
O=C(c1ccc(Cl)cc1Cl)N1CCC(c2nnc3n2C(C(=O)N2CCN(c4ncccn4)CC2)CC3)CC1 (stereo not drawn),,inactive,
COc1ccccc1CC(=O)Nc1ccc2ncnc(N3CCCCC3)c2c1,,,"inconclusive: 50.1 µM [inhibitor, partial curve, poor fit]"
O=C(NC1CCN(CCn2nc3n(c2=O)CCCC3)C1)c1ccccc1 (stereo not drawn),inactive: -1.23%,,
O=C(c1nc(-c2ccc(Cl)nc2)c2ccccn12)N1CCOCC1,inactive: -0.25%,,
CCOc1cccn2c(=O)c(-c3cc(C)n(-c4ccc(Cl)cc4)n3)c(C)nc12,,,"inconclusive: 89.1 µM [inhibitor, single point]"
Cn1c([C@H]2CCN(Cc3ccccc3)C2)nc2ccccc21,,,"inconclusive: 126 µM [inhibitor, partial curve, poor fit]"
CNC(=O)C1CCN(c2nccc(Nc3ccccc3Cl)n2)CC1,,,"inconclusive: 100 µM [inhibitor, partial curve]"
